The record followed here is the RNAGym collection of RNA variant scans (doi:10.1073/pnas.2313332121).

Sequences and labels used below:
B1: TPR 5TU (parent)
chain: GGAUCUUCUCGAUCUAACAAAAAAGACAAAUCUGCCACAAAGCUUGAGAGCAUCUUCGGAUGCAGAGGCGGCAGCCUUCGGUGGCGCGAUAGCGCCAACGUUCUCAACUAUGACACGCAAAACGCGUGCUCCGUUGAAUGGAGUUUAUCAUG

Variants at the background level are over-represented here. Where only a bound is given, the exact number is not on record here.

Variants of B1 are the subject of this data set. In words: polymerase ribozyme fitness, log enrichment relative to wild type (log ratio); higher = more active; in vitro selection for triplet polymerase activity. The gist of the method: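 In triplicate, a single round of in vitro selection was run on each mutant library, PCR-built and transcribed, covering one subunit of a heterodimeric triplet polymerase ribozyme. Frozen incubation at −7 °C followed annealing with a biotinylated primer, partner subunit and triplets, and extended constructs were then gel-excised, streptavidin-captured and taken through RT-PCR. Fitness is the logarithm of genotype enrichment over wild-type enrichment, from inverse-variance-weighted replicate averages of Illumina-sequenced inputs and outputs. […] only genotypes with ≥10 input reads and ≥1 read per output were kept.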
Turning to A16G A20G G48C G62U A91U, the “polymerase ribozyme fitness (log ratio)” value was ≤ -4.2. A16G C35G C43A A47C C85G A97G C125G A138U: the “polymerase ribozyme fitness (log ratio)” value is ≤ -4.2. A16U G86U C87A: the “polymerase ribozyme fitness (log ratio)” value is ≤ -4.2. For the variant A17C A21G A22U U55A C57U C85A G86U U134G G152A, the “polymerase ribozyme fitness (log ratio)” value was ≤ -4.2. Regarding A16U A40G C75U G94C U130G C131A, the “polymerase ribozyme fitness (log ratio)” value was ≤ -4.2. As for A16U U44G G48A C87U U102G C131U C132G, the “polymerase ribozyme fitness (log ratio)” value is ≤ -4.2. On to A16C G34U U55A U77G C93U A98U G124C, for which the “polymerase ribozyme fitness (log ratio)” value is ≤ -4.2.

For the variant A16U C35U A49C C75U A142U, the “polymerase ribozyme fitness (log ratio)” value was ≤ -4.2. Regarding A16U A37U U45A C93U G100C U111C C114A G141U, the “polymerase ribozyme fitness (log ratio)” value was ≤ -4.2. As to A17C A39C A52G G83C G92C U104G G126U G140C, the “polymerase ribozyme fitness (log ratio)” value is ≤ -4.2. For A16U A22C G59A C118A, the “polymerase ribozyme fitness (log ratio)” value is -3.09. As to A17C A22U A37U A60G G71U U78A C93A U104G A122C, the “polymerase ribozyme fitness (log ratio)” value was ≤ -4.2. Consider A16U A47C U53A C85G C131A U134A G140U, for which the “polymerase ribozyme fitness (log ratio)” value was ≤ -4.2. As to A16U A19C C57U G71C U134G G141U, the “polymerase ribozyme fitness (log ratio)” value is ≤ -4.2. Next, A16U A17G A20G C35A G59C A66G A91U C114U: ≤ -4.2; A16G A19G A49C C57U G86C A91C: ≤ -4.2. For A16U A30U A60C G83U A97G, the “polymerase ribozyme fitness (log ratio)” value was ≤ -4.2. Next, A16G C76A G86A A89U G133C U145G: ≤ -4.2; A17C A23C U31A C35G C43U U144G: ≤ -4.2; A16G U77C G86C G117U: ≤ -4.2. A16U A22U C51A U77C A91U C99G A107U A115C: the “polymerase ribozyme fitness (log ratio)” value is ≤ -4.2. A16U A24U A41U G48A G94A C99A: the “polymerase ribozyme fitness (log ratio)” value is ≤ -4.2. Consider A16U A19C A40C C76A G88A U135G, for which the “polymerase ribozyme fitness (log ratio)” value was ≤ -4.2.

As for A16U C76A G94A C96U G128A, the “polymerase ribozyme fitness (log ratio)” value is ≤ -4.2.

In the case of A16G C38U U44A A89C U101G A122C, the “polymerase ribozyme fitness (log ratio)” value is ≤ -4.2.

Turning to A16U A21G A23G U104G, the “polymerase ribozyme fitness (log ratio)” value is ≤ -4.2. For A16U A21U A24U C27G C79A C93U, the “polymerase ribozyme fitness (log ratio)” value is ≤ -4.2. A17C A37U G50C G133U: the “polymerase ribozyme fitness (log ratio)” value was ≤ -4.2. Regarding A17C A21U C43A U55C C85A A89G C131U, the “polymerase ribozyme fitness (log ratio)” value was ≤ -4.2. On to A17C A21C A40G C87G A91G G100C, for which the “polymerase ribozyme fitness (log ratio)” value is ≤ -4.2. As for A16C U56G C93A U104G, the “polymerase ribozyme fitness (log ratio)” value was ≤ -4.2. Turning to A16G A47U G67A G152U, the “polymerase ribozyme fitness (log ratio)” value was ≤ -4.2. Under A16U A49G stands -1.93; under A16G G94U C95A U134G, -3.52. As to A16U C87G, the “polymerase ribozyme fitness (log ratio)” value was ≤ -4.2. For the variant A16U C87U, the “polymerase ribozyme fitness (log ratio)” value was -2.65. As for A17C A40C G83C U109G, the “polymerase ribozyme fitness (log ratio)” value was -3.6.

With A16U A24G C72G G84A C105U C123U U127C, the “polymerase ribozyme fitness (log ratio)” value is ≤ -4.2. With A16G G70A C93A, the “polymerase ribozyme fitness (log ratio)” value was ≤ -4.2. Regarding A16U A40G C87A U148A, the “polymerase ribozyme fitness (log ratio)” value was ≤ -4.2. Turning to A16U A23G U148A, the “polymerase ribozyme fitness (log ratio)” value was ≤ -4.2. As to A16U A91U U146A, the “polymerase ribozyme fitness (log ratio)” value is ≤ -4.2. On to A16U G71A A73G C93U A113C C118A G140A, for which the “polymerase ribozyme fitness (log ratio)” value is ≤ -4.2. As for A16U C35A C87A A91G C149G, the “polymerase ribozyme fitness (log ratio)” value was ≤ -4.2. Turning to A16U A47G G48U C85G C95A, the “polymerase ribozyme fitness (log ratio)” value is ≤ -4.2.

Turning to A16G G68U C76A U77C C85U, the “polymerase ribozyme fitness (log ratio)” value is ≤ -4.2. Turning to A16G A20G A120C, the “polymerase ribozyme fitness (log ratio)” value is -1.84. As for A16C U90C C93G, the “polymerase ribozyme fitness (log ratio)” value is ≤ -4.2. Under A16G A23C U55G G88A C108A U111C A122C stands ≤ -4.2. Consider A16U G83C C99A, for which the “polymerase ribozyme fitness (log ratio)” value was -3.97.

Turning to A16U A26C G42C A60C C76A G92U A110G U146C, the “polymerase ribozyme fitness (log ratio)” value is ≤ -4.2.

As to A16G G58A G92U G133A, the “polymerase ribozyme fitness (log ratio)” value is ≤ -4.2. On to A16U C32G A37G A97G G124A G133U U135C, for which the “polymerase ribozyme fitness (log ratio)” value is ≤ -4.2. As for A16G A110G, the “polymerase ribozyme fitness (log ratio)” value is -3.77. Turning to A16G A24U A29U G59A G62A A64G G68C G88A C95U A122U U130C, the “polymerase ribozyme fitness (log ratio)” value is ≤ -4.2. Next, A16C U56C C87U: -2.13. In the case of A17C A20G C35U C36A G50U G140C, the “polymerase ribozyme fitness (log ratio)” value was ≤ -4.2. Consider A16U C43U C87U U104G A107G C118A, for which the “polymerase ribozyme fitness (log ratio)” value was ≤ -4.2. Regarding A17C A30G C79G C87G C96G C105A, the “polymerase ribozyme fitness (log ratio)” value is ≤ -4.2. Turning to A16G C32G A41U G80C C99U A110U U127A G143A, the “polymerase ribozyme fitness (log ratio)” value is ≤ -4.2. Under A16U G84U G86U C93G U144C stands -3.51; under A16U G50C U56A G84C A97U U101A A113C A119G G133U A137U, ≤ -4.2; under A16U U53C C54U U55G C93U, ≤ -4.2. Take A16U C54U: the “polymerase ribozyme fitness (log ratio)” value was -1.53.

Consider A16U A22C A30G A40U U53A A73G A107U U134C A147C U148A A150U, for which the “polymerase ribozyme fitness (log ratio)” value was ≤ -4.2. Consider A16G C38G G50A U102C A106U, for which the “polymerase ribozyme fitness (log ratio)” value was ≤ -4.2. With A16U C27A G42A U44G U45A A49C A113G U144A, the “polymerase ribozyme fitness (log ratio)” value was ≤ -4.2. Turning to A16U C35A G74A G80C G83U G86A A97U, the “polymerase ribozyme fitness (log ratio)” value is ≤ -4.2. For the variant A16U C85U U144C, the “polymerase ribozyme fitness (log ratio)” value was -2.3. For the variant A16U A23U A64C C79U G83U C96G A142C, the “polymerase ribozyme fitness (log ratio)” value is ≤ -4.2. Under A16U A52U A60G C93U stands ≤ -4.2. On to A16G G50C G59C G88U A89U G152U, for which the “polymerase ribozyme fitness (log ratio)” value was ≤ -4.2.

Turning to A16U G94A, the “polymerase ribozyme fitness (log ratio)” value was -2.47. Under A16G G94A U102G G140U stands ≤ -4.2; under A16C G50A C85U, -3.26; under A16U C54G A97C C116G G124U A137C, ≤ -4.2. Consider A16U C18U A41C G74A C93A, for which the “polymerase ribozyme fitness (log ratio)” value was ≤ -4.2. Next, A16U C76A G83C C95G: ≤ -4.2; A16U A41G A47C C76G G88C G94C A110C U134A G140A G141C A147C: ≤ -4.2. As for A16U A28C G58A A60G U82G C93U, the “polymerase ribozyme fitness (log ratio)” value is ≤ -4.2.

As to A16G G58U U77G C93U A97U U102G G126U C131A, the “polymerase ribozyme fitness (log ratio)” value was ≤ -4.2. In the case of A16U A22U U44C U53A C87A A89G, the “polymerase ribozyme fitness (log ratio)” value was ≤ -4.2.

With A16U G84A, the “polymerase ribozyme fitness (log ratio)” value is -2.41. With A16U A24U U55A U56A G70C G83C G112C A120U G141U, the “polymerase ribozyme fitness (log ratio)” value was ≤ -4.2.
